PubChem BioAssay (NCI)
Where “and” joins values, the source holds several entries; their conditions need not be identical. Equal values may be shown once.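 Exposure lasted 48 hours, with cells grown in 96-well plates and compounds tested at five concentrations. GI50: concentration for 50% inhibition of growth. TGI is the concentration that stops growth completely.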 Numbered stars: 1 amine (or outer) side, 2 acyl side, 3 side chain; on linkers, the order of the positions; unused ones are H or OH. Square brackets hold non-standard residues; d marks the D form. Peptide text beside a SMILES is read from it. * marks the point of attachment. ξ: configuration not given here. X13 = CCN(CC)c1ccc2cc(N*)c(=O)oc2c1; X28 = C=CCC(O[*:1])C(=O)[*:2]; NMeV = CN[CH](C(=O)O)C(C)C; dIva = CC[C@@](C)(N)C(=O)O; X12 = O=C(OCCN[*:1])[*:2]; NMeA = CN[CH](C)C(=O)O; Aib = CC(C)(N)C(=O)O; ξP = O=C(O)C1CCCN1; βAla = NCCC(=O)O

Tested on: NCI-H322M lung
Assay: inhibition of tumour cell growth, NCI panel, 48 h

Structure (SMILES) | GI50 [µM] | TGI
N=C(N)c1ccc(COc2ccccc2OCc2ccc(C(=N)N)cc2)cc1 | 48.1 | > 100 µM
CCSc1nc(=[N+]2CCCC2)ss1 | – | > 100 µM
O=C1/C(=C/c2ccccc2)CCC/C1=C\c1ccc(O)c(CN2CCCCC2)c1 | – | 18.5 µM
O=C(CCc1cc(-c2ccccc2)nc(=S)[nH]1)Nc1ccccc1[N+](=O)[O-] | – | > 100 µM
O=c1oc2c(ccc3ccccc32)cc1C1=CSC2=NCCN12 | – | > 100 µM
O=C1c2ccccc2CC1C1(O)C(=O)Nc2ccccc21 (stereo not drawn) | – | > 100 µM
c1ccc2cc(CNCCOCCOCCNCc3ccc4ccccc4c3)ccc2c1 | – | 3.38 µM
C=CCC1OC(=O)CCNC(=O)C(C)N(C)C(=O)C(C(C)C)N(C)C(=O)C(C(C)CC)NC(=O)C2CCCN2C1=O (stereo not drawn) (cyclo([X28]PI[NMeV][NMeA][βAla]); configuration not given here) | – | > 100 µM
O=c1[nH]c(-c2ccc(-c3nc4cc([N+](=O)[O-])ccc4c(=O)[nH]3)cc2)nc2cc([N+](=O)[O-])ccc12 | – | > 100 µM
Nc1ccc(-c2ccc(N)cc2I)c(I)c1 | 17.7 | 47.4 µM
CN1CCN(c2cc(-c3cc4ccccc4o3)oc(=O)c2C#N)CC1 | – | > 100 µM
Nc1c(C(=O)Nc2ccccc2)sc2nc3c(cc12)CN(Cc1ccccc1)CC3 | > 100 | > 100 µM
O=C(CN(/C=C/C(=O)C(F)(F)F)c1ccccc1)c1ccc(Cl)c(Cl)c1 | 12.9 | 26.8 µM
CCCCCC[C@H]1C(=O)O[C@H](C)[C@H](NC(=O)c2cccc(NC=O)c2OC)C(=O)O[C@@H](C)[C@@H]1OC(=O)CC(C)C (tested in a mixture with another compound) | – | > 100 µM
Cn1ccnc1C(=O)/C=C/c1ccc(CC(=O)Nc2ccc(C(F)(F)F)cc2)cc1 | 2.54 | 6.77 µM
COc1ccc(C2(O)c3ccccc3C(=O)N(C)C2(O)c2ccc(OC)cc2)cc1 (stereo not drawn) | – | > 100 µM
NC(CCC(=O)O)(CCC(=O)O)CCC(=O)O | – | > 100 µM
O=C(Cc1ccccc1)NCCCN(CCCCN(CCCNC(=O)Cc1ccccc1)C(=O)OCc1ccccc1)C(=O)OCc1ccccc1 | – | > 100 µM
Cc1ccc(Sc2ccc(C)cc2[N+](=O)[O-])c([N+](=O)[O-])c1 | – | > 100 µM
CCOc1cc2c(cc1O)/C(=N/NS(=O)(=O)c1ccc(C)cc1)C[C@@H]1[C@@H]2CC[C@]2(C)[C@@H](O)CC[C@@H]12 | – | > 100 µM
CC(C)C/C=C/C1=NN(c2cccc(S(=O)(=O)O)c2)C2(C1)SCC(=O)N2c1nc2ccccc2s1 (stereo not drawn) | – | > 100 µM
O=C(/C=C/c1ccccc1)CSc1nc2ccc(I)cc2c(=O)n1Cc1ccccc1 | – | > 89.7 µM
CCC1CCc2c(OC)ccc(OCC(=O)O)c2C1=O (stereo not drawn) | – | > 100 µM
Cc1ccc2c(C)c3ccc4ccccc4c3c[n+]2c1 | – | 48.6 µM

Structure (SMILES) | GI50 [µM] | TGI
CC(=O)N(CN1C(=O)CCC1C(=O)O)c1cccc(O)c1 (stereo not drawn) | – | > 100 µM
COC(=O)c1cc(-c2cccn2C)c2c(c1C(=O)OC)c1ccccc1n2C | – | > 100 µM
C/C(=N\NC(=S)Nc1ccc(C)cc1)c1nc2ncccc2[nH]1 | – | 30 µM
Cc1ccc2c(c1)C(=O)c1c-2n(CCCBr)c(=O)c2cc([N+](=O)[O-])ccc12 | > 100 | > 100 µM
COc1ccc(-c2c3c(nc4nc(SC)nc(SC)c24)CCCC3)cc1OC | – | > 100 µM
Nc1nc(N)c(N=O)c(OCC2CCCCC2)n1 | 20.1 | > 87.9 µM and 78 µM
COC(=O)C1=C(C(=O)OC)SC(=C(N=Nc2ccccc2)c2ccccc2)S1 | – | > 100 µM
Cn1c(=O)c2c(ncn2CCCCOc2ccc3c(c2)[n+]([O-])nc(N)[n+]3[O-])n(C)c1=O | – | > 100 µM
CCC(=O)N(O)C(C)(C)C | – | > 100 µM
CC(C)C12C=CC(C)(CC1)n1c(=O)c3cc4ccccc4cc3c(=O)n12 (stereo not drawn) | – | > 100 µM
CC(C)C1COC(c2cccc(C3=N[C@@H](C(C)C)CO3)n2)=N1 (stereo partly drawn) | – | > 100 µM
CC(c1ccccc1)/[N+]([O-])=C/c1ccccc1 (stereo not drawn) | – | > 100 µM
CCCOc1nc(SCCC)nc2c1cnn2-c1ccccc1 | > 100 | > 100 µM
Clc1nc(Cl)c(-c2ccccc2)c(Cl)n1 | – | 26.3 µM
CC(C)CCc1n[nH]c(=O)n1/N=C\c1ccccc1 | – | > 100 µM
CCN(CC)c1ccc2cc(NC(=O)OCCNC(=O)CCNC(=O)[C@H](CC(C)C)NC(=O)C(C)(C)NC(=O)C(C)(C)NC(=O)[C@H](CC(C)C)NC(=O)CCNC(=O)C(C)(C)NC(=O)[C@H](CC(C)C)NC(=O)CCNC(=O)[C@@](C)(CC)NC(=O)[C@H](C)NC(=O)CCNC(=O)C(C)(C)NC(=O)[C@H](C)NC(=O)[C@@H]3CCCN3C(=O)[C@@](C)(CC)NC(=O)[C@H](Cc3ccccc3)NC(=O)C3CCCN3C(=O)C(C)(C)NC(=O)C3CCCN3C(=O)C(C)(C)NC(C)=O)c(=O)oc2c1 (stereo partly drawn) (Ac-[Aib][ξP][Aib][ξP]F[dIva]PA[Aib][βAla]A[dIva][βAla]L[Aib][βAla]L[Aib][Aib]L[βAla][X12]-X13) | 0.00531 | 0.051 µM
O=C1CC(C(=O)N2CCCCC2)n2c(=O)n(-c3ccccc3)c(=O)n2C1 (stereo not drawn) | – | > 100 µM
O=C1[C@@H]2C[C@@H](O)CN2C(=O)c2ccccc2N1CCCO | – | > 100 µM
CCOC(=O)C1=C(Nc2cccc3ccccc23)OC/C1=N\NC(=O)c1ccccc1O | – | > 100 µM
CCOC(=O)c1nc(-c2ccccc2)oc1OCC | – | > 100 µM
O=C(OCCBr)c1ccc(Cl)c([N+](=O)[O-])c1 | 2.86 | 6.96 µM
CCOc1ccc(NCC2CC/C(=C\c3ccc(O)cc3)C2=O)cc1 (stereo not drawn) | – | > 100 µM
COc1cccc(C2SCC(=O)N2c2ccc(-n3c(-c4ccccc4)nc4ccccc4c3=O)cc2)c1OC (stereo not drawn) | – | > 100 µM
COC(=O)C1=C(C)NC(C)=C(C(=O)OC)C1c1cccc(NO)c1 | – | > 100 µM
